Several values for one entry are separate records, joined by “and”; a condition that tells them apart may be missing. Equal values may be shown once. In all, about 340,000 compounds went through this assay and about 6,900 (2%) were called active. Cut-off read from the data, not from the text of the source: active = inhibition above about 30%; inactive = below that, where a call was filed. This is a selection; strong and weak results do not stand in their true shares. Where no call is shown, the source filed none.
Each molecule was assayed against D(2) dopamine receptor (Homo sapiens) (UniProt P14416) (assay: HTS Assay for Allosteric Antagonists of the Human D2 Dopamine Receptor: Primary Screen for Antagonists). Conditions: HEK293 TREx D2 cells, calcium flux, dopamine EC80; at 10 µM; stronger effect = higher value.
How it was run: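 Antagonism is scored as inhibition of an EC80 dopamine-evoked calcium signal in a force-coupled, tetracycline-inducible HEK293 T-REx D2 line, with compound present 180 s before agonist.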
Note: 0% is about no effect.

Chain of UniProt P14416 (P14416 whole entry, looked up): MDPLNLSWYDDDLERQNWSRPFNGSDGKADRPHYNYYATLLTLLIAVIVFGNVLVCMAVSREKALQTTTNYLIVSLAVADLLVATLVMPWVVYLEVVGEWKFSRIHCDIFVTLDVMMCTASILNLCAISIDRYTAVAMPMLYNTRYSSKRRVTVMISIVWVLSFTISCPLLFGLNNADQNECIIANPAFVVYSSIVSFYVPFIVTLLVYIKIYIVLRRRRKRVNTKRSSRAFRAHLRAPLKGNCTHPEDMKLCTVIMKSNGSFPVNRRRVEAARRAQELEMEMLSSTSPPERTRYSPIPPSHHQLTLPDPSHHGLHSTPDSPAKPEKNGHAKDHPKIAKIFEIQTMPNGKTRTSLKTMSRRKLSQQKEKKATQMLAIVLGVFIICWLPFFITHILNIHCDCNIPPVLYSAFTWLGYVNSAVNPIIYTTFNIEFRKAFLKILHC

| SMILES | inhibition |
| --- | --- |
| CCC(CC)C(=O)Nc1cccc(-c2nc3ccccc3s2)c1 | 5.1% |
| CCOc1ccc(-c2nnc(SCC(=O)NCc3ccc(C)cc3)nc2-c2ccc(OCC)cc2)cc1 | -11.8% |
| Fc1ccc(-c2cn3cc(Cc4ccc(Cl)cc4)sc3n2)cc1 | -1.49% |
| CCC(C(=O)Nc1cc(-c2nc3cccnc3s2)ccc1C)c1ccccc1 (stereo unspecified) | -6.18% |
| Cc1ccc(Cl)cc1NC(=O)Cn1c(=O)c2ccccc2n2nncc12 | -1.61% |
| CCOc1ccccc1C1CC(=O)Oc2c1c(=O)n(C)c1ccccc21 (stereo unspecified) | -2.55% |
| Cc1[nH]c(=O)[nH]c(=O)c1S(=O)(=O)N1CCCC(C(=O)NCCc2ccc(Cl)cc2)C1 (stereo unspecified) | active: 65.5% |
| O=C(NCCC1=CCCCC1)c1ccc2c(c1)ncn2-c1ccc(F)c(F)c1 | 2.44% |
| O=c1c2c(-c3ccc(Cl)cc3)ccnc2[nH]n1-c1ccccc1 | -20% |
| CC(=O)c1ccc(N2CCN(S(=O)(=O)c3ccc4[nH]c5c(c4c3)CCCC5)CC2)cc1 | 2.27% |
| CCN(Cc1ccccc1)Cc1c(O)ccc2c(=O)c(-c3ccccc3Cl)c(C(F)(F)F)oc12 | 0.355% |
| CCc1ccc(Nc2nc(N)nc(CSc3nc4ccccc4s3)n2)cc1 | 15% |
| O=C(NCc1cccc(F)c1)c1cccc(NC(=O)c2nsc3ccccc23)c1 | 26.2% |
| CCOCc1cc(CN2CCN(c3cccc(Cl)c3)CC2)c(O)c2ncccc12 | 18.8% |
| CCCN(CCC)C(=O)CSc1nc2sc3c(c2c(=O)n1-c1ccccc1)CCN(C(C)=O)C3 | -6.32% |
| CC(=O)Nc1cccc(NC(=O)c2c(-c3ccccc3)c(-c3ccccc3)nn(C)c2=O)c1 | -19.8% |
| Cc1nn(C)c2c1c(-c1ccccc1)cc(=O)n2C(C)C(=O)NCc1ccc(F)cc1 (stereo unspecified) | 5.13% |
| CCN1CCN(C(c2cccc(F)c2)c2c(O)cc(C)n(Cc3ccco3)c2=O)CC1 (stereo unspecified) | -4.72% |
| O=C1CC(c2ccccc2)Cc2[nH]c(=O)c(-c3nc(-c4ccc(Cl)cc4)cs3)cc21 (stereo unspecified) | -6.33% |
| CC(=O)c1cccc(NC(c2ccc(F)cc2)c2nnc(-c3ccccc3)o2)c1 (stereo unspecified) | 21.1% |
| CCSc1nnc2c(n1)OC(CC)N(C(C)=O)c1ccccc1-2 (stereo unspecified) | -5.18% |
| Cc1ccc(-n2nnnc2CNC(=O)C(C)C)cc1C | 9.74% |
| COc1ccc(-c2cn3nc(N4CCCC(C(=O)NCc5ccccc5Cl)C4)sc3n2)cc1 (stereo unspecified) | 17.5% |
| Cc1cccc(CNC(=O)CCn2ccc3cc(S(=O)(=O)N4CCCC4)ccc32)c1 | -9.54% |

| SMILES | inhibition |
| --- | --- |
| COc1ccc(OC)c(CCNC(=O)c2cnn(-c3ccccc3)c2C2CCN(C(=O)OC(C)(C)C)CC2)c1 | -5.5% |
| Cc1ccccc1CSc1nc2c(sc3ccccc32)c(=O)n1CCCOC(C)C | -0.113% |
| COc1cc(OC)cc(N2CCN(S(=O)(=O)c3ccc(-n4cnnn4)cc3)CC2)c1 | 10.2% and active: 46.3% |
| COC(=O)c1cc2oc3ccccc3c2n1Cc1cc(C)ccc1C | -1.61% |
| CCOC(=O)C1CCCN(Cc2nc(N)nc(Nc3ccccc3)n2)C1 (stereo unspecified) | active: 46.4% |
| CCOC(=O)CC(NC(=O)N1CCC(CN2CCC(C)CC2)CC1)c1ccccc1 (stereo unspecified) | -12.3% |
| Cc1cccc(C)c1Nc1c(-c2ccsc2)nc2ccc(Cl)cn12 | 5.61% |
| COC(=O)c1c(-c2ccc(Cl)cc2)noc1N1CCN(c2cccc(C(F)(F)F)c2)CC1 | -9.73% |
| CCc1ccccc1NC(=O)NCc1ccc2c(c1)CCN2C(=O)c1ccccc1 | 1.72% |
| O=C(Nc1ccccc1C(=O)OCc1cc(=O)n2c3c(sc2n1)CCCC3)c1cccc(Cl)c1 | 4.98% |
| CCCn1ccc2c(OCC(=O)NCc3ccccc3Cl)cccc2c1=O | 1.39% |
| O=C(CSc1nccn1Cc1ccccc1)NCc1ccccc1Cl | 10.6% |
| CCOc1ccc(S(=O)(=O)N(CC(=O)NCCSc2ccccc2)c2ccccc2)cc1 | -9.82% |
| CCN(c1ccc(OC)cc1)S(=O)(=O)c1ccc2[nH]c(=O)ccc2c1 | 2.52% |
| O=C(NCc1ccc(Cl)cc1)C1CCCN(c2nc3ccccc3n3cccc23)C1 (stereo unspecified) | 8.98% |
| O=C(Cn1c2ncccc2c(=O)n1-c1ccccc1)Nc1ccc(F)c(F)c1 | 0.0323% |
| Cc1cc(N2CCCCC2)nc2ccc(NC(=O)/C=C/c3ccccc3Cl)cc12 | -4.47% |
| CCn1cc(C(=O)OCC(=O)Nc2ccc(F)cc2F)c(=O)c2ccc(C)nc21 | -18.4% |
| Cc1cccc(-c2nc(Cn3c(=O)cc(-c4ccccc4)c4c(C)nn(C)c43)c(C)o2)c1 | -2.78% |
| CCCn1c2ccccc2c2cnn(CC(=O)NCCc3ccccc3)c(=O)c21 | 6.03% |
| COC(=O)c1ccc(Cn2c(=O)cc(C(F)(F)F)c3c(C)nn(C)c32)cc1 | 6.59% |
| CCc1ccc(Nc2ncnc3c2cnn3-c2cc(Cl)ccc2C)cc1 | -7.27% |
| COc1cccc(CNC(=O)C(NS(=O)(=O)c2ccc3c(c2)CCN3C(C)=O)C(C)C)c1 (stereo unspecified) | 3.68% |
| CCOc1ccccc1CC1C(=O)Nc2ccc(Br)cc21 (stereo unspecified) | -10.6% |

| SMILES | inhibition |
| --- | --- |
| COc1ccc(OC)c(C(C)NC(=O)Cn2c(=O)cc(C)c3c(C)nn(-c4ccc(C)cc4)c32)c1 (stereo unspecified) | 0.671% |
| COc1ccccc1-c1cc(C(=O)N2CCCCC2C)no1 (stereo unspecified) | 3.82% |
| CCCCC(=O)Nc1ccc2nc(SCC(=O)N3CCCC3)sc2c1 | 1.35% |
| COc1ccc(CNC(=O)c2nn(-c3ccccc3C)nc2CO)cc1 | -23.4% |
| COc1ccc(S(=O)(=O)N(C)C)cc1NC(=O)CCCSc1ccccc1 | active: 47.7% |
| Nc1c(-c2nc(-c3cccs3)no2)nnn1-c1cccc(Cl)c1 | 7.69% |
| Cc1ccc(S(=O)(=O)Nc2cc(=O)[nH]c3c2CCC3)cc1 | active: 37% |
| CCOc1ccc(NC(=O)C(NS(=O)(=O)c2ccc3c(c2)CCN3C(C)=O)C(C)C)cc1 (stereo unspecified) | -7.85% |
| CCOc1ccccc1NC(=O)c1nnn(CC(=O)Nc2ccc(OC)c(OC)c2)c1N | 10.1% |
| O=C(CSc1nc2ccccc2nc1Cc1ccc(Cl)cc1)NCCc1ccccc1 | -14.2% |
| Cc1cc(N2CCCC2)ccc1/C=C1/C(=O)N(C)C(=S)N1C | active: 59.5% |
| CCOC(=O)N1CCC(NC(=O)c2ccc3c(c2)N(Cc2ccc(F)cc2)C(=O)c2ccccc2S3(=O)=O)CC1 | -15.2% |
| Cc1ccc(CNC(=O)c2ccc3c(O)c(S(=O)(=O)c4ccccc4)c(=O)[nH]c3c2)cc1 | 5.34% |
| CC(C)(C)C1CCC(N2CCN(c3ccccc3)CC2)CC1 (stereo unspecified) | active: 86.2% |
| CCc1nonc1NC(=O)c1oc2ccccc2c1C | -23.9% |
| COc1ccc(Cc2nnnn2CC(=O)O)cc1 | active: 35.2% |
| CCOc1cc(C2c3c(-c4ccc(Br)cc4)n[nH]c3C(=O)N2c2ccc(Cl)cc2)ccc1O (stereo unspecified) | 7.31% |
| CCCCC(CC)CNC(=O)c1ccc2c(=O)n(Cc3ccc(OC)cc3)c(=O)[nH]c2c1 (stereo unspecified) | -7.3% |
| Cn1nc(C(=O)NCc2ccc(Cl)cc2)c2c1-c1ccccc1SC2 | 16.7% |
| CC(=O)Nc1ccc(N(C(=O)c2ccco2)C(C(=O)NC2CCCCC2)c2ccccc2)cc1 (stereo unspecified) | active: 36.7% |
| Cc1ccc(N(Cc2cccs2)C(=O)c2ccc(Br)o2)cc1 | -6.6% |
| Cc1cc(=O)n2nc(N3CCC(C(=O)Nc4ccc(C)c(Cl)c4)CC3)sc2n1 | 2.36% |
| COc1ccc(CNC(=O)Cc2c(C)c3c(cc(C)c4c(C)c(C)oc43)oc2=O)cc1 | -14.1% |
| CSc1ccc2c(c1)C(N1CCN(C)CC1)Cc1ccccc1S2 (stereo unspecified) | active: 81.3% |

| SMILES | inhibition |
| --- | --- |
| COc1ccc(CCNC(=O)C2CCCN(c3nc4c(C)cc(C)cc4s3)C2)cc1OC (stereo unspecified) | -9.46% |
| Cc1nc(-c2ccc(C)c(S(=O)(=O)N3CCC(C(=O)NCc4ccc(Cl)cc4)CC3)c2)no1 | -10.1% |
| CCOC(=O)c1c(NC(=O)c2cc(C(C)C)on2)sc(C)c1C | -13.6% |
| Cc1cccc(CSc2nc3c(c(=O)[nH]2)C(c2cccc(O)c2)CC(=O)N3)c1 (stereo unspecified) | 9.56% |
| Cc1ccc(S(=O)(=O)C(CNC(=O)c2ccccc2F)c2cccs2)cc1 (stereo unspecified) | 13.4% |
| Cc1cccc(CN2CCN(CC(=O)NCc3ccc(Cl)cc3)C2=O)c1 | 15.6% |
| COc1ccc(C2=C(C)C(=O)N(Cc3ccc(C(=O)NCc4ccc(C)cc4)cc3)S2(=O)=O)cc1 | -14.1% |
| COc1ccc(CNC(=O)CN(c2cc(C)cc(C)c2)S(=O)(=O)c2c(C)[nH]c(=O)[nH]c2=O)cc1 | 7.76% |
| O=C(CSc1ncccn1)N/N=C/c1cccc(OC2CSC2)c1 | active: 36% |
| CCOc1cc(-c2nc(-c3ccc(Br)cc3)no2)cc(OCC)c1OCC | -14.3% |
| O=C(COc1ccccc1)N(Cc1cccnc1)c1nc2ccc(F)cc2s1 | 1.3% |
| COc1ccc(-c2cc(C(F)(F)F)n3nc(C(=O)NCC45CC6CC(CC(C6)C4)C5)cc3n2)cc1 | 16.1% |
| O=C(CN1C(=O)COc2ccc(S(=O)(=O)N3CCOCC3)cc21)N1CCN(c2ccccc2)CC1 | 10.9% |
| COCCCNC(=O)c1ccc2c(=O)n(Cc3ccc(OC)cc3)c(=O)[nH]c2c1 | 3.07% |
| Cc1oc2ncn(C)c(=O)c2c1C(=O)NCCCN1CCCC(C)C1 (stereo unspecified) | -1.61% |
| O=C(Nc1ccc(Br)cc1F)c1ncoc1-c1ccco1 | -1.04% |
| O=S(=O)(c1cc(Cl)ccc1Cl)N1CCc2ccccc21 | active: 37.4% |
| COc1ccc(-n2ncc(C(=O)N3CCc4ccccc4C3)c2C2CCN(C(=O)OC(C)(C)C)CC2)cc1 | 2.14% |
| O=C(CCN1CCc2ccccc2C1)Nc1ccc2c(c1)OCO2 | active: 58.5% |
| Cc1cc(C)cc(NS(=O)(=O)c2ccc3c(c2)CCCN3C(=O)C2CCC2)c1 | -20.3% |
| Cc1cc(C)c(NC(=O)C2CCN(c3nnc(C)c4c(C)n(-c5ccccc5)nc34)CC2)c(C)c1 | 3.77% |
| COc1ccc(CNC(=O)C(C)n2ccc3cc(S(=O)(=O)N4CCCC4)ccc32)cc1OC (stereo unspecified) | 3.12% |
| COc1ccccc1NC(=O)C1=C(C)Nc2nc(SCc3ccccc3C)nn2C1CC(C)C (stereo unspecified) | -1.27% |
| O=C(CSc1nccn1Cc1ccc(Cl)cc1)Nc1ccc2c(c1)OCCO2 | 1.9% |

From PubChem BioAssay AID485344 (National Center for Advancing Translational Sciences (NCATS), 2010)
